From ChEMBL document CHEMBL4888484, “Replenishing the malaria drug discovery pipeline: Screening and hit evaluation of the MMV Hit Generation Library 1 (HGL1) against asexual blood stage Plasmodium falciparum ,using a nano luciferase reporter read-out” (2022) come the findings set out here.

Molecules are shown by their SMILES. About 540 (0.36%) of roughly 150,000 compounds showed an effect of 50% or more. This is one part of the list.

The assay relates to Plasmodium falciparum. The assay can be described thus: Primary screen in NF54 nanoGlo assay, in single point, at 2uM, 72h; a lower Z score goes with more inhibition. The class given is functional, Erythrocyte. The note with it: timepoint 72 hour.
On to `CC1(C)[C@H]2CC=C(CN3CCc4nocc4C3)[C@@H]1C2`, for which the % Inhibition (in general, the change of the read-out against control, counted positive when it falls) is reported as -2% and the Z score worked out at 0.44.
With `COc1ncccc1C(=O)N1C[C@H](c2ccccc2)[C@@H]2[C@H]1C1CCN2CC1`, the “% Inhibition” value is reported as -14% and the Z score is 1.77.
Taken in the same sequence, the figures for `CN(C)C(=O)c1cn(CC2CCCCC2)cc(C(=O)NCc2nc3ccccc3s2)c1=O` were 9% and -1.22.
Regarding `Cc1oc(-c2ccccc2)nc1Cn1c(=O)oc2ccccc21`, the “% Inhibition” value is listed as -4% and the Z score is given as 0.48.
The corresponding values for `Cc1ccc(CN(Cc2ccc(F)cc2)C(=O)CN(CCN2CCOCC2)C(=O)Cc2ccccc2)o1` are -3% and 0.39.
The corresponding values for `C=CCOc1cccc2c1cc(C(=O)NCc1ccccc1)n2C/C=C\C` are -15% and 1.73.
Taken in the same sequence, the figures for `Cc1cccc(-c2nc(C)c3c(n2)N(CCN2CCCC2)C(=O)C3)c1` were -8% and 1.16.
With `Cc1cccc([C@H]2C[C@@H](O)[C@@H](O)[C@@H]2NCC2CCCC2)c1`, the “% Inhibition” value is -2% and the Z score amounted to 0.32.
The corresponding values for `O=C(Nc1ccc2c(c1)CNCC2)c1coc(Br)c1` are -2% and 0.31.
On to `Nc1cc(-c2noc(C34CCCN(CCC3)C4)n2)ncn1`, for which the “% Inhibition” value was -7% and the Z score is on record as 1.3.
Taken in the same sequence, the figures for `O=C(CN1CCCC1=O)NC1CCCCCCC1` were -5% and 0.76.
`CN1C[C@@H]2CN(C(=O)c3ncccc3Br)C[C@@H]2C1`: the “% Inhibition” value is reported as 4% and the Z score is on record as -0.7.
As to `CC(C)(N)Cc1ccc(C(F)(F)F)cc1`, the “% Inhibition” value is listed as 1% and the Z score is reported as -0.09.
For the compound `COc1ccc(NC(=O)CN2CCCN(C)S2(=O)=O)cc1`, the “% Inhibition” value is reported as -19% and the Z score came to 3.17.
The corresponding values for `c1ccc(CCNC2CCCCCCC2)nc1` are 5% and -0.79.
The corresponding values for `c1ccc2c(c1)c(-c1noc(-c3ccncc3)n1)nn2CCN1CCCCC1` are -6% and 0.98.
Taken in the same sequence, the figures for `CC(C)(C)NC(=O)CN1C[C@H]2CCC[C@@H](C2)C1` were -15% and 1.95.
With `CN1CC2CN(C(=O)c3cccs3)CC(C1)O2`, the “% Inhibition” value is reported as -15% and the Z score stood at 1.85.
Taken in the same sequence, the figures for `Fc1ccc(CCNCc2ccc3[nH]ccc3c2)cc1` were 0% and 0.07.
The corresponding values for `COc1nc(NC2CCCCC2)nc(N2CC3CC(C2)c2cccc(=O)n2C3)n1` (stereo not given) are 29% and -3.23.
Taken in the same sequence, the figures for `CC(=O)N(C1CCN(Cc2ccccc2)CC1)C1(C(=O)Nc2ccc3[nH]ccc3c2)CCN(C)CC1` were 92% and -11.04.
With `Cc1ccc([C@H]2CN(C(=O)Cc3cc(F)ccc3F)C[C@@H]2N(C)C)cc1`, the “% Inhibition” value was -1% and the Z score is on record as 0.14.
The corresponding values for `COc1cccc(Cn2nnc(C(=O)O)c2-c2cccc(OC)c2)c1` are -7% and 1.38.
For the compound `CCOCCc1nc(-c2c(C)ncc3c2CCNC3)no1`, the “% Inhibition” value is on record as -10% and the Z score stood at 1.51.
The corresponding values for `CC(C)(O)CC(=O)N1CCN2CCOC[C@@H]2C1` are 12% and -2.3.
The corresponding values for `NCC(=O)c1c(Cl)cccc1Cl` are -13% and 1.82.
The corresponding values for `COc1ccccc1NC(=O)N1C[C@@H]2C[C@H](C1)c1c(-c3cncnc3)ccc(=O)n1C2` are 32% and -3.66.
`CCC1(CC)CN(CCc2nccn2C)CCO1`: the “% Inhibition” value stood at 0% and the Z score is -0.01.
The corresponding values for `C[C@@H](Cc1ccccn1)N(C)CCC(=O)Nc1ccccc1Cl` are -7% and 1.04.
For the compound `CC(=O)C1(c2ccccc2)CCN(C(=O)[C@@H](N)Cc2c[nH]cn2)CC1`, the “% Inhibition” value was -13% and the Z score is given as 1.89.
For `CCOC[C@@H](O)CN1CCCN(C(=O)Oc2ccccc2)CC1`, the “% Inhibition” value is recorded as -6% and the Z score turned out to be 1.19.
With `COCCN1C(=O)NC(=O)C2(Cc3ccccc3N3CCN(c4ccc(OC)cc4)CC32)C1=O` (stereo not given), the “% Inhibition” value is recorded as -4% and the Z score was found to be 0.5.
The corresponding values for `O=C(CN1CCN(C(=O)Cc2ccccc2)CC1)Nc1ccccc1F` are 14% and -1.63.
The corresponding values for `O=C(Cc1ccc(Cl)cc1Cl)N1CCC[C@H](c2n[nH]c(=O)o2)C1` are 5% and -0.51.
Taken in the same sequence, the figures for `CC(C)n1nccc1[C@H]1OCC[C@@H]1NC(=O)c1ccc(S(=O)(=O)F)cc1` were 1% and -0.19.
In the case of `CC(C)N1CCN(Cc2cncn2C)CC1`, the “% Inhibition” value amounted to 23% and the Z score is -2.9.
In the case of `Cc1nnc(N2CCN(C)CC2)c(C#N)c1C`, the “% Inhibition” value is -5% and the Z score was 0.72.
The corresponding values for `O=C(c1ccc2cccnc2n1)N1C[C@H](c2ccccc2)[C@@H]2[C@H]1C1CCN2CC1` are -9% and 1.23.
The corresponding values for `O=C1COc2c(Cl)cc(NC(=O)N[C@H]3CN4CCC3CC4)cc2N1` are -12% and 1.54.
Regarding `Cc1noc(C)c1Cc1nc([C@H]2CN3CCCCC3CO2)no1` (stereo not given in full), the “% Inhibition” value is recorded as 30% and the Z score is recorded as -3.38.
The corresponding values for `CCC#CCN1C[C@H]2c3cccc(OC)c3OC[C@@]2(C(=O)O)C1` are -15% and 2.37.
With `O=C(N[C@H]1CN2CCC1CC2)c1ccc(Cl)cc1` [PNU-282987], the “% Inhibition” value is reported as -6% and the Z score worked out at 0.75.
In the case of `Cc1cccc(OCC(=O)N2CCN(Cc3noc4ccccc34)CC2)c1`, the “% Inhibition” value was -7% and the Z score is given as 0.86.
Taken in the same sequence, the figures for `O[C@@H](CN1OC2CCC1CC2)C1CCCCC1` were -11% and 1.13.
The corresponding values for `CC(Cc1ccsc1)NC1CCCN(CC(F)(F)F)C1=O` (stereo not given) are -5% and 0.55.
In the case of `C=CCCC(CN1C[C@H]2CC=CC[C@H]2C1)Oc1ncccn1` (stereo not given in full), the “% Inhibition” value is -8% and the Z score is on record as 1.33.
The corresponding values for `CN1CCCC12CCN(c1ccc3ncccc3c1)CC2` are -3% and 0.34.
On to `Cc1ccc(S(=O)(=O)N2CCC(C(=O)N3C[C@@H]4C[C@@H](C3)c3cccc(=O)n3C4)CC2)cc1`, for which the “% Inhibition” value is reported as -17% and the Z score worked out at 2.14.
As to `COc1ccc(C(=O)[C@@H]2CCCN2)cc1C`, the “% Inhibition” value is -33% and the Z score came to 3.81.
The corresponding values for `CCCCCN(C(=O)[C@H]1CC12CCNCC2)C(C)C` are -9% and 1.27.
Taken in the same sequence, the figures for `Cc1oc(-c2cccc(Br)c2)nc1CN1C(=O)CN=C(c2ccccc2)c2ccccc21` were -6% and 0.85.
Taken in the same sequence, the figures for `CC1OCCC12CN(C1CCNC1=O)CCO2` (stereo not given) were 0% and 0.
`COc1ccnc(NCc2c(C)cc(C)[nH]c2=O)n1`: the “% Inhibition” value was -3% and the Z score is given as 0.43.
Taken in the same sequence, the figures for `COc1ccc(-c2ccc3oc(=O)[nH]c3c2)cc1OC` were -5% and 1.08.
The corresponding values for `Cc1ccc2c(=O)n(C[C@H](C)N3CCCC3)cnc2c1C` are -13% and 1.2.
